Experimental data as given in patent US20020068706A1 (GPC BIOTECH, published 2002).

What was measured:
CDK2/cyclin A complex = CDK2/cyclin A complex (UniProt P24941); test: cell-based or functional assay
CDK2/cyclin E complex = CDK2/cyclin E complex (UniProt P24941); test: cell-based or functional assay
CDK4/cyclin D1 complex [1] = target: T1, CDK4/cyclin D1 complex (UniProt P11802 1-303; P24385); test: cell-based or functional assay
cdc2/cyclin B complex = cdc2/cyclin B complex (UniProt P06493); test: cell-based or functional assay
Sequence of cdc2/cyclin B complex (P06493 whole entry, one chain of several): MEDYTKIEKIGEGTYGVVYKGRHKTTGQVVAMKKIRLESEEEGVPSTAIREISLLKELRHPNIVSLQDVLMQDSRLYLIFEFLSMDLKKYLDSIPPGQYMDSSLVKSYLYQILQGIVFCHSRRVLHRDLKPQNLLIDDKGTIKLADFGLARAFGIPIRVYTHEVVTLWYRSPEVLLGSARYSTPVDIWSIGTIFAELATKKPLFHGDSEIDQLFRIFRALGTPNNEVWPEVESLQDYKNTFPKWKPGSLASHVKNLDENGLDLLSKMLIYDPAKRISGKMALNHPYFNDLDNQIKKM

CDK4/cyclin D1 complex [2] = target: T1, CDK4/cyclin D1 complex; test: inhibition constant from in vitro kinase assay (Sf9 extract, Gst-Rb substrate)
T1 sequence (P11802 whole entry, chain 1 of 2): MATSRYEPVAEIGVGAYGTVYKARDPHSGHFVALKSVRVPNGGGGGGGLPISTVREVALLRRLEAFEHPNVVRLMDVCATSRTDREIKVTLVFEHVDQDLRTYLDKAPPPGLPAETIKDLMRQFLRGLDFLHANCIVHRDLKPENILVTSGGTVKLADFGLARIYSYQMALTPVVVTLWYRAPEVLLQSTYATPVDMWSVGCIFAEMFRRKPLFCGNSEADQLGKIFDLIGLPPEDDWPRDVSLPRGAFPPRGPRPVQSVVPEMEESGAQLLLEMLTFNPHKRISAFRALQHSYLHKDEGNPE
T1 sequence (P24385 whole entry, chain 2 of 2, further chain): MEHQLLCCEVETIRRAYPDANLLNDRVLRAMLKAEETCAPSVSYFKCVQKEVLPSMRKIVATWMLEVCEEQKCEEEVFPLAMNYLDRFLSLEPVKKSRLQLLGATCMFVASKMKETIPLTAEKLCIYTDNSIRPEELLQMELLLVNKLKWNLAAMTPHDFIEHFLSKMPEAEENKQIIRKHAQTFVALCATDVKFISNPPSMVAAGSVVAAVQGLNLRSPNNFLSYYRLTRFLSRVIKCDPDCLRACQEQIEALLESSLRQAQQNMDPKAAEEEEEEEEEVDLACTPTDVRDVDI

B1: p27-p16 fusion protein (other)
chain: [about 200 residues omitted]GGGGSGGGGSGGGGSEFCGRACARRLRRGESMQRAAGSSMEPSADWLATAAARGRVEEVRALLEAVALPNAPNSYGRRPIQVMMMGSARVAELLLLHGAEPNCADPATLTRPVHDAAREGFLDTLVVLHRAGARLDVRDAWGRLPVDLAEELGHRDVARYLRAAAGGTRGSNHARIDAAEGPSDIPD
notes: About 25% of the preparation was the fusion protein; also called p27-p16 chimeric protein
- IC50 of in vitro kinase assay (32P incorporation into Gst-Rb) (CDK2/cyclin A complex): 25 nM
- IC50 of in vitro kinase assay (32P incorporation into Gst-Rb) (CDK2/cyclin E complex): 30 nM
- IC50 of in vitro kinase assay (32P incorporation into Gst-Rb) (CDK4/cyclin D1 complex [1]): 25 nM
- IC50 of in vitro kinase assay (32P incorporation into Gst-Rb) (cdc2/cyclin B complex): 15 nM
- Ki (CDK4/cyclin D1 complex [2]): 23 nM
